Measurements taken from PubChem BioAssay AID651820 (National Center for Advancing Translational Sciences (NCATS), 2012).
In all, about 340,000 compounds went through this assay and about 12,000 (3.5%) were called active. The shares of active, inactive and inconclusive entries below differ from those in the screen. Calls come from the whole dose curve; as a rule, active = well fitted inhibition curve with a large enough effect; inconclusive = small, poorly fitted or top-dose-only effect, or another doubt; inactive = no such curve, though single readings can be large or run the other way. No potency is given beside an inconclusive call; the fits are too rough.

Test: qHTS Assay for Inhibitors of Hepatitis C Virus (HCV)
Details: Huh7.5.1 HCVcc-Cre (HCVcc is cell-culture hepatitis C virus) infection, luciferase reporter, 44 h; series mostly up to 41.8 µM
Procedure, shortened: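 Cells seeded at 1,000/well and cultured 4 h, then compounds added followed by HCVcc-Cre virus (~0.5 moi). After 44 h further culture, luciferase substrate was added, plates held 15 min at room temperature, and luminescence read for 15 sec.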
Potency is the fitted concentration of half-maximal effect; tags give direction and shape of the fitted curve.

Compound | Potency
Cc1nc(N2CCN(C(=O)c3cccs3)CC2)c2c3c(sc2n1)CCCC3 | active: 11.2 µM
Fc1cccc(Oc2nc3ccccc3n3cccc23)c1 | inconclusive [inhibitor, single point]
COc1ccc(C(=O)N2CCc3[nH]nc(-c4ccccc4)c3C2)cc1 | active: 11.2 µM
CCN1CCN(C(=S)Nc2sc(C)c(-c3ccccc3)c2C(=O)OC)CC1 | inconclusive [inhibitor, single point]
Cc1cc2nc3ccc(N(C)C)cc3nc2cc1N | inactive
COc1ccc(N2CCN(C(CNC(=O)c3cccc(Cl)c3)c3cccnc3)CC2)cc1 (stereo not given) | inconclusive [inhibitor, single point]
O=C(O)c1cc(NC(=O)c2cccc(F)c2)cc(NC(=O)c2cccc(F)c2)c1 | inactive
N#CCC(=O)Nc1ccc(C(=O)OCC(=O)Nc2ccc3ccccc3c2)cc1 | inconclusive [inhibitor, single point]
CCn1c(C)c(C)c2cc(C(=O)NCCCN3CCCCC3)ccc21 | inconclusive [inhibitor, single point]
Cc1cc(C)c2[nH]c(=O)c(CN(Cc3ccccc3)C(=S)NCCCN(C)C)cc2c1 | inconclusive [inhibitor, single point]
COC(=O)c1c(NC(=O)c2cccs2)sc2c1CCCC2 | inconclusive [inhibitor, full curve]
Cc1ccsc1C(=O)OCC(=O)NCCc1ccccc1 | inactive
CCCCCCCC(=O)Nc1cc(C(=O)NCc2ccc(C)cc2)ccc1N1CCC2(CC1)CC(c1cccc(Br)c1)=NO2 | inactive
Cc1cc(C)c(OCCCCN(C)C)c(Br)c1 | inconclusive [inhibitor, single point]
Cc1cccc([C@@H]2[C@@H]3C(=O)N(Cc4ccccc4)C(=O)[C@@H]3[C@]3(Cc4ccccc4)C(=O)N(c4cccc(F)c4)C(=O)N23)c1 | inactive
O=C(c1ccc(Cl)cc1)N1CCn2c1nc1ccccc12 | inconclusive [inhibitor, single point]
CC1CCc2c(sc3nc(CN4CCOCC4)nc(NS(=O)(=O)c4cccc([N+](=O)[O-])c4)c23)C1 (stereo not given) | inactive
CCC(C)(C)NC(=O)C(c1ccc(OC)cc1)N(Cc1ccco1)C(=O)CCC(=O)Nc1cc(C)on1 (stereo not given) | inconclusive [inhibitor, single point]
CC(C)CC[n+]1ccccc1/C=C/c1ccc(N(C)C)cc1 | active: 5.01 µM
CCOc1ccc(NCc2cccn2-c2nnc(N3CCC(C(=O)NCCCN4CCCCC4C)CC3)s2)cc1 (stereo not given) | inconclusive [inhibitor, single point]
COc1cccc(CNC(=O)C(C(=O)NCc2cccc(OC)c2)c2ncc(C(F)(F)F)cc2Cl)c1 | inconclusive [inhibitor, partial curve]
CCOC(=O)N1CCN(c2cc(N3CCN(CC)CC3)c(F)cc2[N+](=O)[O-])CC1C (stereo not given) | inconclusive [inhibitor, partial curve]
CC(=O)c1ccc(N2CCN(C(=O)CCCc3nc4ccccc4s3)CC2)cc1 | inconclusive [inhibitor, single point]

Compound | Potency
CC(Nc1nc(-c2ccncc2)nc2ccccc12)c1ccccc1 (stereo not given) | inconclusive [inhibitor, partial curve]
N#C/C(C(=O)Nc1ccc(Cl)cc1)=C(/S)Nc1ccccc1 | inconclusive [inhibitor, single point]
COc1ccc(CN(C)c2ccc(S(=O)(=O)N3CCN(C)CC3)cc2[N+](=O)[O-])cc1OC | active: 0.562 µM
CC1(C)N=C(SCC(=O)Nc2ccccc2)C(c2ccc(Cl)cc2)=N1 | inconclusive [inhibitor, full curve]
CC1CCN(C(=O)Cn2c(=O)n(Cc3ccco3)c(=O)c3sccc32)CC1 | inactive
COc1cc(S(=O)(=O)NCCCN2CCOCC2)ccc1Cl | inactive
Cc1sc2ncnc(Nc3ccccc3)c2c1C | inconclusive [inhibitor, partial curve]
CCN(CC)CCCCCCCCOC(=O)c1cc(OC)c(OC)c(OC)c1 | active: 0.562 µM
c1ccc(-c2nc(C3CCCCC3)no2)cc1 | inactive
N#C/C(=C\c1ccc(OCC(N)=O)cc1)S(=O)(=O)c1ccccc1 | inactive
O=C(Nn1cc(C(=O)N2CCN(c3ccccc3F)CC2)c2ccccc2c1=O)c1cnccn1 | inconclusive [inhibitor, single point]
CSc1nnc(NC(=O)c2nc(S(=O)(=O)Cc3ccccc3F)ncc2Cl)s1 | inconclusive [inhibitor, single point]
O=C(O)CCCN1C(=O)/C(=C\C(Cl)=C\c2ccccc2)SC1=S | inconclusive [inhibitor, single point]
Cc1ccc(-c2cc(C(F)(F)F)c(C#N)c(=O)[nH]2)cc1 | inconclusive [inhibitor, single point]
COc1ccc(C(=O)Oc2c(CN3CCOCC3)cc(Cl)c3cccnc23)cc1 | active: 12.6 µM
CCC(C)N=Cc1c(Nc2ccccc2)nc2c(C)cccn2c1=O (stereo not given) | inconclusive [inhibitor, single point]
COC(=O)C1=C(N)Oc2cc(N(C)C)ccc2C1c1ccccc1OC (stereo not given) | active: 6.31 µM
O=C1NC(=S)NC(=O)C1=Cc1ccc(Br)s1 | inconclusive [inhibitor, single point]
O=C1OC(C(=O)NCc2ccccc2)Cc2ccccc21 (stereo not given) | inactive
CCCCN(CCCNc1ncnc2nc[nH]c12)c1ccccc1 | inconclusive [inhibitor, single point]
CCc1ccccc1N(CC(=O)NC1CCCCC1)C(=O)CCCC(=O)Nc1ccccn1 | inconclusive [inhibitor, single point]
N#Cc1ccsc1NC(=O)CN1CCN(c2ccc(O)cc2)CC1 | inconclusive [inhibitor, single point]
